Reference: patent US20230012428A1 (JIANGSU HENGRUI MEDICINE, published 2023)

B1: h1830-S85 (bispecific antibody, human IgG4 S228P, kappa)
heavy: QVQLQESGPGLVKPSQTLSLTCTVSGGSISDGSAYWSWIRQHPGKGLEYIGFISRAGSTYNTPSLKGRVTISRDTSKNQFSLKLSSVTAADTAVYYCARSGGWLAPFDYWGRGTLVTVSSASTKGPSVFPLAPCSRSTSESTAALGCLVKDYFPEPVTVSWNSGALTSGVHTFPAVLQSSGLYSLSSVVTVPSSSLGTKTYTCNVDHKPSNTKVDKRV[human IgG4 Fc with S228P (EU numbers) not given here]GGGGSGGGGSGGGGGGEEELQMIQPEKLLLVTVGETATLHCTVTSLLPVGPVLWFRGVGPGRELIYVSGRGHFPRVTTVSDLTKRNNKDFSIRISSITPADVGTYYCVKFRKGSPEDVEFKSGPGTEMALGAKPS
light: DIVMTQSPDSLAVSLGERATINCKSSQSLFYHSNQKHSLAWYQQKPGQPPKLLIYGASTRESGVPDRFSGSGSGTDFTLTISSLQAEDVAVYYCQQYYGYPYTFGGGTKVEIKRTVAAPSVFIFPPSDEQLKSGTASVVCLLNNFYPREAKVQWKVDNALQSGNSQESVTEQDSKDSTYSLSSTLTLSKADYEKHKVYACEVTHQGLSSPVTKSFNRGEC
notes: h1830 IgG4 with SIRPγ variant S85, GS16 linker; also called PD-L1-CD47 bifunctional fusion protein
B2: h1830-S12 (bispecific antibody, human IgG4 S228P, kappa)
heavy: QVQLQESGPGLVKPSQTLSLTCTVSGGSISDGSAYWSWIRQHPGKGLEYIGFISRAGSTYNTPSLKGRVTISRDTSKNQFSLKLSSVTAADTAVYYCARSGGWLAPFDYWGRGTLVTVSSASTKGPSVFPLAPCSRSTSESTAALGCLVKDYFPEPVTVSWNSGALTSGVHTFPAVLQSSGLYSLSSVVTVPSSSLGTKTYTCNVDHKPSNTKVDKRV[human IgG4 Fc with S228P (EU numbers) not given here]GGGGSGGGGSGGGGGGEEELQMIQPEKLLLVTVGETATLHCTVTSLLPVGPVLWFRGVGPGRELIYVSGRGHFPRVTTVSDLTKRENKDFSIRISSITPADVGTYYCVKFRKGSPEDVEFKSGPGTEMALGAKPS
light: B1 light
notes: h1830 IgG4 with SIRPγ variant S12, GS16 linker; also called PD-L1-CD47 bifunctional fusion protein
B3: h1830-S15 (bispecific antibody, human IgG4 S228P, kappa)
heavy: QVQLQESGPGLVKPSQTLSLTCTVSGGSISDGSAYWSWIRQHPGKGLEYIGFISRAGSTYNTPSLKGRVTISRDTSKNQFSLKLSSVTAADTAVYYCARSGGWLAPFDYWGRGTLVTVSSASTKGPSVFPLAPCSRSTSESTAALGCLVKDYFPEPVTVSWNSGALTSGVHTFPAVLQSSGLYSLSSVVTVPSSSLGTKTYTCNVDHKPSNTKVDKRV[human IgG4 Fc with S228P (EU numbers) not given here]GGGGSGGGGSGGGGGGEEELQMIQPEKLLLVTVGETATLHCTVTSLLPVGPVLWFRGVGPGRELIYVSGRGHFPRVTTVSDLTKRENRDFSIRISSITPADVGTYYCVKFRKGSPEDVEFKSGPGTEMALGAKPS
light: B1 light
notes: h1830 IgG4 with SIRPγ variant S15, GS16 linker; also called PD-L1-CD47 bifunctional fusion protein
B4: h1830-S19 (bispecific antibody, human IgG4 S228P, kappa)
heavy: QVQLQESGPGLVKPSQTLSLTCTVSGGSISDGSAYWSWIRQHPGKGLEYIGFISRAGSTYNTPSLKGRVTISRDTSKNQFSLKLSSVTAADTAVYYCARSGGWLAPFDYWGRGTLVTVSSASTKGPSVFPLAPCSRSTSESTAALGCLVKDYFPEPVTVSWNSGALTSGVHTFPAVLQSSGLYSLSSVVTVPSSSLGTKTYTCNVDHKPSNTKVDKRV[human IgG4 Fc with S228P (EU numbers) not given here]GGGGSGGGGSGGGGGGEEELQMIQPEKLLLVTVGETATLHCTVTSLLPVGPVLWFRGVGPGRELIYVSGRGHFPRVTTVSDLTKRNNRDFSIRISSITPADVGTYYCVKFRKGSPEDVEFKSGPGTEMALGAKPS
light: B1 light
notes: h1830 IgG4 with SIRPγ variant S19, GS16 linker; also called PD-L1-CD47 bifunctional fusion protein
B5: h1830-S58 (bispecific antibody, human IgG4 S228P, kappa)
heavy: QVQLQESGPGLVKPSQTLSLTCTVSGGSISDGSAYWSWIRQHPGKGLEYIGFISRAGSTYNTPSLKGRVTISRDTSKNQFSLKLSSVTAADTAVYYCARSGGWLAPFDYWGRGTLVTVSSASTKGPSVFPLAPCSRSTSESTAALGCLVKDYFPEPVTVSWNSGALTSGVHTFPAVLQSSGLYSLSSVVTVPSSSLGTKTYTCNVDHKPSNTKVDKRV[human IgG4 Fc with S228P (EU numbers) not given here]GGGGSGGGGSGGGGGGEEELQMIQPEKLLLVTVGETATLHCTVTSLLPVGPVLWFRGVGPGRELIYMSGRGHFPRVTTVSDLTKRNNMDFSIRISSITPADVGTYYCVKFRKGSPEDVEFKSGPGTEMALGAKPS
light: B1 light
notes: h1830 IgG4 with SIRPγ variant S58, GS16 linker; also called PD-L1-CD47 bifunctional fusion protein

Each binder was assayed against T1, Human CD47-his (CD47-ECD-His) (human, UniProt Q08722 partial chain, limits assumed) (assay: ELISA, CD47-his coated on plate).
T1 construct: also called hCD47; free human CD47 protein
Work on B1 yielded an EC50 of 0.0712 µg/mL. In the case of B2, the EC50 is reported as 0.0511 µg/mL. B3 gave an EC50 of 0.0641 µg/mL. Work on B4 yielded an EC50 of 0.0673 µg/mL. For B5, the EC50 was 0.0408 µg/mL.

These binders were tested against T2, Cyno CD47-his (cyno, UniProt A0A2K5X523 19-139) (assay: ELISA, CD47-his coated on plate).
T2 construct: extracellular domain; not shown: His tag
Binder B1 has an EC50 of 0.0667 µg/mL. Binder B2 has an EC50 of 0.0789 µg/mL. Binder B3 has an EC50 of 0.0723 µg/mL. Binder B4 has an EC50 of 0.0634 µg/mL. For B5, the EC50 was 0.0618 µg/mL.

Biological target: T1, Human CD47-his (CD47-ECD-His)
T1 sequence (Q08722 19-139 limits assumed): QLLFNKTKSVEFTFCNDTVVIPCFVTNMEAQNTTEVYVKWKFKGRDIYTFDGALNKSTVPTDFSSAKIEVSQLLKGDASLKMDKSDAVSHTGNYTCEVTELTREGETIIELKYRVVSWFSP
Assay: ELISA, CD47-his coated on plate
Remark: another data set of the same source
Binder B1 has an EC50 of 0.0847 µg/mL.

Biological target: T2, Cyno CD47-his
Assay: ELISA, CD47-his coated on plate
Remark: another data set of the same source
With B1 the EC50 was 0.0641 µg/mL.

Each binder was assayed against T3, hPD-L1-His (human, UniProt Q9NZQ7 partial chain) (assay: ELISA, PD-L1-his coated on plate).
T3 construct: Bought; also called Human PD-L1-his; Human PD-L1; not shown: His tag
For B1, the EC50 was 0.142 µg/mL. For B2, the EC50 was 0.146 µg/mL. B3 gave an EC50 of 0.128 µg/mL. B4 was tested, and the EC50 was 0.167 µg/mL. With B5 the EC50 was 0.161 µg/mL.

The binders below were run against T4, Cyno PD-L1-His (cyno, UniProt G7PSE7 19-239) (assay: ELISA, PD-L1-his coated on plate).
T4 construct: Bought; not shown: His tag
Work on B1 yielded an EC50 of 0.207 µg/mL. Binder B2 has an EC50 of 0.178 µg/mL. For B3, the EC50 was 0.232 µg/mL. In the case of B4, the EC50 is reported as 0.179 µg/mL. B5 was tested, and the EC50 was 0.32 µg/mL.

The binders below were run against T5, mPD-L1 (mouse, UniProt Q9EP73 partial chain) (assay: ELISA, PD-L1-his coated on plate).
T5 construct: Bought; also called Mouse PD-L1-his; Mouse PD-L1
For B1, the EC50 was 0.0275 µg/mL. With B2 the EC50 was 0.0343 µg/mL. Binder B3 has an EC50 of 0.0386 µg/mL. Binder B4 has an EC50 of 0.034 µg/mL. B5 gave an EC50 of 0.0335 µg/mL.

The binders below were run against T6, PD-L1-Fc (prepared in-house) (human, UniProt Q9NZQ7 partial chain, limits assumed) (assay: blocking ELISA, PD-L1-Fc coated, competitor biotin-labeled B7-1).
T6 construct: Prepared in-house; also called human PD-L1-Fc; not shown: Fc
B1 gave an IC50 of 0.148 µg/mL. For B2, the IC50 was 0.0304 µg/mL. B3 gave an IC50 of 0.0555 µg/mL. B4 gave an IC50 of 0.0342 µg/mL. For B5, the IC50 was 0.127 µg/mL.

These binders were tested against T6, PD-L1-Fc (prepared in-house) (assay: blocking ELISA, PD-L1-Fc coated, competitor biotin-labeled PD-1).
T6 sequence (Q9NZQ7 19-238 limits assumed): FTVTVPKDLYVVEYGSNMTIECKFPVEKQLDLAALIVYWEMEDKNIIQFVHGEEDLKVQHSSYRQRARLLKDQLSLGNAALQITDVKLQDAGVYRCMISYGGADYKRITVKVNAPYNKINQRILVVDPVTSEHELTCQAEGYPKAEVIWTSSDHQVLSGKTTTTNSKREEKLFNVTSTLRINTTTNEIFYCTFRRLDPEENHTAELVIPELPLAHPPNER
In the case of B1, the IC50 is reported as 0.0814 µg/mL. With B2 the IC50 was 0.0429 µg/mL. B3 was tested, and the IC50 was 0.0471 µg/mL. Binder B4 has an IC50 of 0.0518 µg/mL. Binder B5 has an IC50 of 0.102 µg/mL.

What follows are binders tested against T1, Human CD47-his (CD47-ECD-His) (assay: SPR (Biacore T200), binder captured on Protein A chip, antigen in flow).
For B1, the Kd was 3.84 nM. B2 gave a Kd of 4.36 nM. For B3, the Kd was 4.11 nM. Work on B4 yielded a Kd of 5.6 nM. With B5 the Kd was 1.95 nM.

These binders were tested against T2, Cyno CD47-his in the same assay as above.
Work on B1 yielded a Kd of 4.63 nM. Binder B2 has a Kd of 5.11 nM. B3 gave a Kd of 4.78 nM. Work on B4 yielded a Kd of 6.55 nM. In the case of B5, the Kd is reported as 2.18 nM.

What follows are binders tested against T3, hPD-L1-His in the same assay as above.
T3 sequence (Q9NZQ7 19-239 limits assumed): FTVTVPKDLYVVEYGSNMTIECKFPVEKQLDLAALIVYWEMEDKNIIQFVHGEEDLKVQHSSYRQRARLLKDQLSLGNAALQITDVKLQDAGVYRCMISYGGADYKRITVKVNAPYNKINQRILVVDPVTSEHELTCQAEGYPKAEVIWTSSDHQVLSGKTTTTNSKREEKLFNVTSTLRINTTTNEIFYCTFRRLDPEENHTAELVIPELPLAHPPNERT
For B1, the Kd was 0.374 nM. B2 was tested, and the Kd was 0.4 nM. B3 was tested, and the Kd was 0.38 nM. Work on B4 yielded a Kd of 0.399 nM. For B5, the Kd was 0.374 nM.

What follows are binders tested against T4, Cyno PD-L1-His in the same assay as above.
T4 sequence (G7PSE7 entry or part of it): as the sequence (Q9NZQ7 19-239 limits assumed) above, with A33T, A34S, S62N, R68Q, Q82R, F173L, T185A, T192I, H215L counted along it
With B1 the Kd was 0.397 nM. Work on B2 yielded a Kd of 0.429 nM. B3 showed a Kd of 0.496 nM. Work on B4 yielded a Kd of 0.424 nM. B5 gave a Kd of 0.398 nM.

What follows are binders tested against T5, mPD-L1 in the same assay as above.
T5 sequence (Q9EP73 19-238 limits assumed): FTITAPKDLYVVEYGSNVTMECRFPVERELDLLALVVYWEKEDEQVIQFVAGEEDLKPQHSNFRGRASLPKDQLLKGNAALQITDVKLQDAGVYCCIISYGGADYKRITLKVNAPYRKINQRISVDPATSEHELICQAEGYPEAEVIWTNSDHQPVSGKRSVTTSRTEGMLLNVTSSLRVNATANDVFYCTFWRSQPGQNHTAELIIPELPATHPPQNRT
For B1, the Kd was 85.8 nM. B2 was tested, and the Kd was 69.8 nM. With B3 the Kd was 78.8 nM. B4 was tested, and the Kd was 68.6 nM. B5 was tested, and the Kd was 75.1 nM.
